Assay results from PMC4336329 (PLoS ONE, 2015).
Among all 310,000 compounds or so, about 2,200 (0.71%) showed an effect of 50% or more. The effect is printed as a negative number. The list shows a part of the results.

Biological target: human ether-à-go-go-related gene (hERG) potassium channel (human, UniProt Q12809)
Assay: primary screen, population patch clamp on CHO cells stably expressing hERG

Sequence of human ether-à-go-go-related gene (hERG) potassium channel (Q12809 whole entry, looked up): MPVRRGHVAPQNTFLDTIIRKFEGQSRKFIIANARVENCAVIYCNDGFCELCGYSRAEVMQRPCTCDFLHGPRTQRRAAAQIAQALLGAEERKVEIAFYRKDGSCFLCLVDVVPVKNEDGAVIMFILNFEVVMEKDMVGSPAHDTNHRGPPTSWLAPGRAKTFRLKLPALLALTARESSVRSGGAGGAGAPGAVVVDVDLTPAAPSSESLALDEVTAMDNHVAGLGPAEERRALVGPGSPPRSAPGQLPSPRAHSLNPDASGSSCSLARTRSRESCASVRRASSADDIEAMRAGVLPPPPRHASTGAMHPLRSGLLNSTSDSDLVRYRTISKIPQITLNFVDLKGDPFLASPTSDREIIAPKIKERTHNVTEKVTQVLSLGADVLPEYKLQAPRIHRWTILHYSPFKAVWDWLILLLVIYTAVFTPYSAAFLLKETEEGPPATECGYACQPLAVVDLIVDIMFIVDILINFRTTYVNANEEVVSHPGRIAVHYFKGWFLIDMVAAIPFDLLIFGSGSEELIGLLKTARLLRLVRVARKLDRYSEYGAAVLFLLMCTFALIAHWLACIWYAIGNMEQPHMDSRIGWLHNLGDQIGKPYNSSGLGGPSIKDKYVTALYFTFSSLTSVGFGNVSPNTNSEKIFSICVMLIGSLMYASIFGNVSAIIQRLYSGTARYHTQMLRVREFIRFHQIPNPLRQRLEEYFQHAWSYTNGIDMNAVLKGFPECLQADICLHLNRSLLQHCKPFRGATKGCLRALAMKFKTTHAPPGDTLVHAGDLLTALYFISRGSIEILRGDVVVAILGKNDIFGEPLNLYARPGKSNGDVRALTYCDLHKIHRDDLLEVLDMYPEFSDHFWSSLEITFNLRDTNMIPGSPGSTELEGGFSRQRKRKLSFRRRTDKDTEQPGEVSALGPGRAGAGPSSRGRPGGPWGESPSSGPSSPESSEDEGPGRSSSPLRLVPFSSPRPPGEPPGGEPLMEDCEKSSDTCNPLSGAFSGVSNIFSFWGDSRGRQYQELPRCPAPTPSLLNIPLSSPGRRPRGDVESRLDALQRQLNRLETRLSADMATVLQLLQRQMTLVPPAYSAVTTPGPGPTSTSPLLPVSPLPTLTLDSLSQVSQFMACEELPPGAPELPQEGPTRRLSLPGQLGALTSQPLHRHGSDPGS

Row | SMILES | hERG current change (%, negative = inhibition) at 1uM [%]
1 | CNC(=O)N(O)C1N(/N=C/c2ccc(C)cc2)C(=S)SC1(C)C (stereo not shown) | 17.7
2 | CC(=O)c1c(C)[nH]c(C(=O)Nc2ccc(C)c(S(=O)(=O)Nc3ccc(C)cc3C)c2)c1C | 5.9
3 | CCOc1ccc(C)cc1S(=O)(=O)Nc1cccnc1 | 8.35
4 | COc1ccc(C(=O)OCC[N+]2(C)CCCCC2)cc1.[I-] | 11.5
5 | O=C1Nc2c(c(=O)[nH]c(=O)n2-c2ccccc2)C1(Nc1ncccn1)C(F)(F)F (stereo not shown) | 6.13
6 | COc1ccc(C)cc1S(=O)(=O)N1CCCC(N2CCOCC2)C1 (stereo not shown) | 12.1
7 | CCc1ccc(CCC(=O)Nc2ncc(Cc3ccccc3Cl)s2)o1 | 18.1
8 | Cc1ccc(CN2CCN(/N=C/c3ccc(N(C)C)cc3)CC2)cc1 | 8.09
9 | CC(C)c1nccn1S(=O)(=O)c1cc([N+](=O)[O-])ccc1Cl | 9.9
10 | [O-]/C(=C(\C(=S)Nc1ccccc1F)[n+]1ccccc1)c1ccc(OC(F)F)cc1 | 6.05
11 | COC(=O)C(NS(=O)(=O)c1ccc(C)cc1)c1ccccc1 (stereo not shown) | 5.94
12 | COc1cc(N/N=C(\C)c2ccc(O)c(C)c2)nc(-c2ccccc2)n1 | -17.8
13 | CC(C)c1ccc(NC(=O)CSc2n[nH]c(=O)n2Cc2ccco2)cc1 | 1.77
14 | FC(F)(F)c1ccc(CSc2nccn2-c2ccccc2)cc1 | 10.1
15 | C=CCn1c(COc2ccc(F)cc2)nnc1SCC(=O)c1c[nH]c2c(CC)cccc12 | 12.4
16 | Cc1cc(C)c(NC(=O)NC(=O)c2ccc(F)cc2)c(C)n1 | 11.1
17 | CC(C)N1C[C@@]23C=C[C@@H](O2)C(C(=O)OCc2ccccc2)[C@H]3C1=O (stereo partly shown) | 9.59
18 | CC(C)Oc1ccc(/C=N/NC(=O)C(CSCc2ccccc2)NC(=O)c2ccc([N+](=O)[O-])cc2)cc1 (stereo not shown) | 12.8
19 | CCCNC(=O)Cn1cnc2sc(C(=O)N3CCN(CCC)CC3)c(C)c2c1=O | 7.59
20 | O=C1OC2(O)C3C4C=CC(C4)C3C(=O)N2c2ccccc21 (stereo not shown) | 11.6
21 | Cc1occc1C(=O)Nc1sccc1C(N)=O | 0.783
22 | CCC(C)[C@H]1CNCCN1CCc1cccc(F)c1 (stereo partly shown) | 16.3

Row | SMILES | hERG current change (%, negative = inhibition) at 1uM [%]
23 | O=C(CNC(=O)c1ccco1)Nc1ccncc1 | 4.53
24 | CC(C(=O)NCc1ccc2c(c1)OCO2)c1ccc([N+](=O)[O-])cc1 (stereo not shown) | 2.86
25 | Cc1ccccc1-n1nc(C(=O)O)c(C)c(C#N)c1=O | 8.71
26 | CCOC(=O)c1ccc(NC(=O)COc2cc(=O)n(CC)c3ccccc23)cc1 | 15.6
27 | Cc1cccc(N(C(=O)CCC(=O)Nc2ccccn2)C(C(=O)NC(C)C)c2ccc(O)cc2)c1 (stereo not shown) | 10.6
28 | O=C(O)/C(=C\c1ccc(-c2ccccc2[N+](=O)[O-])o1)c1ccccc1 | 15.7
29 | Cc1ccc2c(C)c(C(=O)N(C)C(C)c3ccncn3)oc2c1C (stereo not shown) | 11
30 | Fc1ccc(CNc2cnccn2)cc1 | 12.8
31 | COc1ccc(Cc2nnc3c4cnn(C)c4ncn23)cc1 | 2.92
32 | Cc1cc(C)c2c(CC(=O)N3CCCC3)coc2c1 | 12.5
33 | COc1cc(C(=O)Nc2ccccc2C(=O)NCc2cccnc2)cc(OC)c1OC | 12.2
34 | COc1ccc(OCCNc2cc(Cl)ccc2[N+](=O)[O-])cc1 | 13.1
35 | O=C(CN1C(=O)NC2(CCOc3ccccc32)C1=O)c1ccc(Br)cc1 (stereo not shown) | 4.42
36 | Cc1ccc(CNC(=O)Cn2cnc(S(=O)(=O)N3CCC(C)CC3)c2)o1 | -25
37 | CC1(C)CC2CC(C)(CN2C(=O)COC(=O)c2n[nH]c(=O)c3ccccc23)C1 (stereo not shown) | 1.45
38 | N#CC1=C(SCc2ccccc2)NC(=O)CC1c1ccccc1 (stereo not shown) | 8.05
39 | C=CCn1c(=O)c2ccccc2n2nnc(C(=O)OCC)c12 | 14.5
40 | O=C(NCc1ccccn1)Nc1cccc([N+](=O)[O-])c1 | 12.5
41 | CCN(CC)N=Nc1ccc(S(=O)(=O)Nc2nc(C)cc(C)n2)cc1 | 15.8
42 | CC(=O)Nc1cccc(NC(=O)CSc2nnc(NC(=O)c3ccco3)s2)c1 | 6.28
43 | O=C(CSc1nnc(-c2cccnc2)n1Cc1ccccc1)N1CCOCC1 | 17
44 | Cc1c(C(=O)O)cccc1-n1c(C)cc(C=O)c1C | 7.72

Row | SMILES | hERG current change (%, negative = inhibition) at 1uM [%]
45 | O=C(CCC(=O)NNC(=O)COc1ccccc1)NCc1ccccc1 | 18
46 | COc1ccc(-n2nc(C(=O)NCC(=O)N3CCCC(C)C3)c3ccccc3c2=O)cc1Cl (stereo not shown) | 10.2
47 | COc1ccc(C(=O)COC(=O)CN2C(=O)C3C4C=CC(C5CC45)C3C2=O)cc1 (stereo not shown) | -4.38
48 | CCOC(=O)C1=NNC2(c3ccc(C)cc3)C(=O)N(c3ccc(Cl)cc3)C(=O)C12 (stereo not shown) | 8.28
49 | O=C(O)C1=C[C@@H](c2ccccc2)C[C@@H](OCCCCO)O1 | 17.1
50 | O=C(C[n+]1cc(-c2ccccc2)n2c1CCC2)OCc1ccccc1.[Br-] | 6.44
51 | C=CCSC1=N/C(=C\c2ccc3c(c2)OCO3)C(=O)S1 | 3.67
52 | COc1ccccc1N1CCN(S(=O)(=O)c2ccc3c4c(cccc24)C(=O)N3)CC1 | 6.87
53 | COc1ccc(NC(C)=O)cc1NC(=O)CSc1nnc(-c2cccnc2)n1C | -0.667
54 | O=C(/C=C/c1ccccc1[N+](=O)[O-])NCCc1ccc(F)cc1 | -2.5
55 | Cc1ccc(C(=O)CSc2nc3ccccc3c(=O)[nH]2)cc1 | 6.75
56 | Cc1cc(C)nc(NS(=O)(=O)c2ccc(NC(=O)c3ccc(S(=O)(=O)N(C)C)cc3)cc2)n1 | 9.2
57 | CC(O)[C@H](NC(=O)C1(c2ccccc2)CCN(C(=O)OC(C)(C)C)CC1)C(=O)O (stereo partly shown) | 13.1
58 | COc1cc(/C=C(\C#N)C(=O)NCC2CCCO2)ccc1OC(C)C (stereo not shown) | 6.85
59 | CCCCCC(=O)NC(=S)NC1C2CC3CC(C2)CC1C3 (stereo not shown) | 13.7
60 | O=C(/C=C/c1ccco1)NCC(=O)N/N=C/c1ccccc1[N+](=O)[O-] | -8.89
61 | Clc1ccccc1C1=Nn2c(nnc2-c2ccco2)SC1 | 4.48
62 | CCOc1ccccc1NC(=S)Nc1ncccc1C | 2.51
63 | Cc1ccc(S(=O)(=O)Nc2ccc(C(=O)NCCCn3ccnc3)cc2)cc1[N+](=O)[O-] | 0.434
64 | CCOC(=O)c1cc(-c2ccc(Cl)s2)[nH]n1 | 22.3
65 | COc1ccc(S(=O)(=O)/N=C2/NC(=O)/C(=C\c3ccco3)S2)cc1 | 6.86
66 | COc1cc(C(c2nnnn2C(C)(C)C)N2CCN(C)CC2)cc(OC)c1OC (stereo not shown) | 5.99

Row | SMILES | hERG current change (%, negative = inhibition) at 1uM [%]
67 | O=C(NCc1ccco1)c1ccc(Cl)c(S(=O)(=O)N2CCc3ccccc32)c1 | 10.6
68 | N#Cc1nc(-c2ccco2)oc1NCc1ccccc1Cl | 9.84
69 | CC(=O)c1c[nH]c(C(=O)NC2CCCCCC2)c1 | 5.37
70 | O=C(CSCc1cccc(Cl)c1)NCc1ccc2c(c1)OCO2 | -1.19
71 | CCOC(=O)CCSCC(=O)Nc1cc(C)on1 | 2.22
72 | O=[N+]([O-])c1ccc(N2CCc3ccccc3C2)cc1 | 1.78
73 | O=C(Nc1ccccc1C(=O)NCc1ccccc1)c1ccccc1 | 9.01
74 | Nc1nnc(SCc2coc(-c3ccc(Cl)cc3)n2)s1 | 10.8
75 | C=C1C(=O)O[C@@H]2[C@H]1CC[C@H](C)[C@]1(O)CCC(=O)[C@@]21C | 17.1
76 | Cc1nn2c(N3CCOCC3)c3c(nc2c1-c1ccccc1)CCCC3 | 12.4
77 | O=C(N/N=C/c1cccnc1)c1cccc(F)c1 | 2.08
78 | O=c1c2[nH]c3ccccc3c2ncn1CCN1CCNCC1 | 6.89
79 | CNC(=O)C(C)c1ncc(C(F)(F)F)cc1Cl (stereo not shown) | 12.6
80 | CCc1cc(-c2n[nH]c(C)c2-c2ccccc2Cl)c(O)cc1OC | 16
81 | Cc1nnc(Cl)c2nn(-c3ccccc3F)c(C)c12 | 9.23
82 | CCNS(=O)(=O)c1ccc(CCC(=O)N2CCOCC2)cc1 | 24.1
83 | O=C(CSc1nnc(-c2cnccn2)n1Cc1ccco1)c1ccc(Cl)cc1 | -8.23
84 | CCCCC[C@H](O)/C=C/[C@H]1[C@H](O)CC(=O)[C@@H]1CCCCCCC(=O)O | 1.21
85 | O=C(O)CCCNc1ccc(S(=O)(=O)N2CCCCC2)cc1 | 6.35
86 | COC(=O)C1=C(C)NC(C)=C(C(=O)O[C@@H]2CCCN(Cc3ccccc3)C2)[C@@H]1c1cccc([N+](=O)[O-])c1.Cl | 15.5
87 | CCn1c(SCC(=O)c2cc(OC)ccc2OC)nnc1C(C)C | 11.5
88 | COc1cccc(CCC(=O)N2CCC(n3nccc3NC(=O)CC(C)C)CC2)c1 | 5.01
